Source: article PMC12831199
These are yes or no findings as the source states them, for the method shown. In cells and extracts the contact can be indirect. Some results given as binding are weak or reduced against the parent protein; the word gives no strength. Blank lines part the entries; values can stand above or below the binder they belong to.

Sequences of proteins named here, by UniProt entry; tags and fusion partners are left off. A change or cut given only in a name is not applied to a line headed by its entry. A line that says so, or that is headed by a name, gives the form on record, which may keep a tag or linker. Residues count along the entry.
UniProt P23201: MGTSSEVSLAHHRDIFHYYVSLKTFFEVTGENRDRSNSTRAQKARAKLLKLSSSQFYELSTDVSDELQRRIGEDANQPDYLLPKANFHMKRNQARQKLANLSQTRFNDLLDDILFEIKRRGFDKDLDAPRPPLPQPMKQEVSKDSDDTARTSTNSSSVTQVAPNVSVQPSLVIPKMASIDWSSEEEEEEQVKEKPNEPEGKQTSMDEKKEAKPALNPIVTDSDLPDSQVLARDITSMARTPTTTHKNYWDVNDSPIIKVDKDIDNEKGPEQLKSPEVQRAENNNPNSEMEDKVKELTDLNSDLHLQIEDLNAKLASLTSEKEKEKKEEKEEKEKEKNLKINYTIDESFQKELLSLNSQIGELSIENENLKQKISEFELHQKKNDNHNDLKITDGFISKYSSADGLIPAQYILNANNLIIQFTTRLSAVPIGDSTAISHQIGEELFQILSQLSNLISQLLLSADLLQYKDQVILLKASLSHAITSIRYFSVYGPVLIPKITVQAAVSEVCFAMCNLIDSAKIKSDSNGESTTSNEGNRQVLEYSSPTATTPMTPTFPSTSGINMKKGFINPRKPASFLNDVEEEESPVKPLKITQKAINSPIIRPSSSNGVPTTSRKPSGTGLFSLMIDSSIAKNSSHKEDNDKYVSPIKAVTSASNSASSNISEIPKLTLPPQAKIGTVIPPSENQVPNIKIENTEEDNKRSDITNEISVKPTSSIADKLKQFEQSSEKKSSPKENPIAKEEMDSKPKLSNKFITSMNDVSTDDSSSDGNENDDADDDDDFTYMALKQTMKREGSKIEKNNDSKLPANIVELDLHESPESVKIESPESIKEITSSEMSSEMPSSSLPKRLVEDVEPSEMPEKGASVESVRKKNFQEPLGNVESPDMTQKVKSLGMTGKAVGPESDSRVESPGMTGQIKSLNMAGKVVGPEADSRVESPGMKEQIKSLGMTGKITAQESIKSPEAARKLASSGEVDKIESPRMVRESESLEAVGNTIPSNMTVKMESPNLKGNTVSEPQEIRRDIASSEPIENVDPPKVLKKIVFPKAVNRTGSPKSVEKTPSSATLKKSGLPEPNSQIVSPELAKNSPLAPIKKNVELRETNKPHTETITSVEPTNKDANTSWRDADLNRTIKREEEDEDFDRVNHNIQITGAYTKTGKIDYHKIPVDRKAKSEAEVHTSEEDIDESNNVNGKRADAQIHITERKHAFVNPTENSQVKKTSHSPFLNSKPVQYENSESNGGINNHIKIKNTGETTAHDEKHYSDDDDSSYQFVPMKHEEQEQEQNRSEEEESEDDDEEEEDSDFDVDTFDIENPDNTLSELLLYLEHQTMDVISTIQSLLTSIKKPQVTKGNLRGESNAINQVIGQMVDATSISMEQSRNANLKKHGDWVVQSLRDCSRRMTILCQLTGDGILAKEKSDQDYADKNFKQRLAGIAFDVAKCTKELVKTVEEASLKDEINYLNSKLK
SHD1CRU: residues 1-124 of P23201
SHD1CRU with L109A (P23201, form named): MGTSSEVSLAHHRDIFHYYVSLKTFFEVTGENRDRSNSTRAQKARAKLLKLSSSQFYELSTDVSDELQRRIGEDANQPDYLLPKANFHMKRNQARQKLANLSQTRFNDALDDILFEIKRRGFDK
SHD1CRU with L48A and L51A (P23201, form named): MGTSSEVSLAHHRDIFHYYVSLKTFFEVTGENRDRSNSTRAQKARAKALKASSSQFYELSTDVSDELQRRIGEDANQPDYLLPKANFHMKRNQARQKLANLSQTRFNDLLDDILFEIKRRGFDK
SHD1CRU with L101A (P23201, form named): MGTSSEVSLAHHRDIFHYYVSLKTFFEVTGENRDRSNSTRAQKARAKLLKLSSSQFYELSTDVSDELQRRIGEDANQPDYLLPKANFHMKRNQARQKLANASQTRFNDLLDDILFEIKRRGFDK
SHD1CRU with L51A (P23201, form named): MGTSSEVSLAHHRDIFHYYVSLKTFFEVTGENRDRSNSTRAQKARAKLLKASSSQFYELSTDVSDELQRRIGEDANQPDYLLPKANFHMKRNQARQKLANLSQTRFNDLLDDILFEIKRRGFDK
SHD1CRU with L101A and L109A (P23201, form named): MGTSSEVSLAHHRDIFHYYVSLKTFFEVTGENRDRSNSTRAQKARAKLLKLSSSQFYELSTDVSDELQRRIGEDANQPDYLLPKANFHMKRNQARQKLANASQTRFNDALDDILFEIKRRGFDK
SHD1CRU with L48A (P23201, form named): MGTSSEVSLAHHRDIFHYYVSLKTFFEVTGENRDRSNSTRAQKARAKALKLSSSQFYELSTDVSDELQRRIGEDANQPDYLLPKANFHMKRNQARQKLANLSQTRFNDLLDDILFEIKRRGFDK
UniProt P06784: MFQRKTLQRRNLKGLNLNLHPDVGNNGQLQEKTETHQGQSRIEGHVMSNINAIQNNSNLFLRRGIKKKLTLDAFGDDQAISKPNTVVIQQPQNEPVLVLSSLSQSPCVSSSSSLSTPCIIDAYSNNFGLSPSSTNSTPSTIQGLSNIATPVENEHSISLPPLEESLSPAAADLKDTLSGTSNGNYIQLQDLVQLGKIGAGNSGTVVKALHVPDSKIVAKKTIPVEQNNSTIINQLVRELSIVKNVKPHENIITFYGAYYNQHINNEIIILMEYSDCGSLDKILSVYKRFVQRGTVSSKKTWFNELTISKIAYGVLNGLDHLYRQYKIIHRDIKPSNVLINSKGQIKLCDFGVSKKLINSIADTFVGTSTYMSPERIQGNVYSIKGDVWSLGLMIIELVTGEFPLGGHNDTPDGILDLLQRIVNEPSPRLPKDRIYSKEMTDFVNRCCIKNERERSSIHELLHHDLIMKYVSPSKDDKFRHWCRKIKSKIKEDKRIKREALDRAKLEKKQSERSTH
UniProt Q08729: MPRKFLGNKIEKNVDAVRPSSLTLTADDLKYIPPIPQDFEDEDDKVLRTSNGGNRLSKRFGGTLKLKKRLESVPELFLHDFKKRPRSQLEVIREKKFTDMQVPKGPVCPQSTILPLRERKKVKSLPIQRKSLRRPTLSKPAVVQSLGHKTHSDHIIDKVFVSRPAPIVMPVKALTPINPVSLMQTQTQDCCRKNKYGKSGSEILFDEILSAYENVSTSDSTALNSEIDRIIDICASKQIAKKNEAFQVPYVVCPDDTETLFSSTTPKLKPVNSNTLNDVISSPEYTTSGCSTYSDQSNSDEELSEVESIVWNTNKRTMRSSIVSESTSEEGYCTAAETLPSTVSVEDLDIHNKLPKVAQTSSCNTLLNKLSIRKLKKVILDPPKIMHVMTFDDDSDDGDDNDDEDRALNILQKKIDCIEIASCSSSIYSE

Assays:
[1] = biological target: SHD1CRU (Saccharomyces cerevisiae) (UniProt P23201); assay: split reporter; large-scale split-ubiquitin (Split-Ub) array: PMET17-SHD1CRU a-strain mated with a library of Nub-fusion α-strains; diploids as quadruplets on SD medium without methionine with 1 mg/ml 5-FOA and copper sulfate; colony growth indicates interaction
[2] = biological target: full-length Spa2CRU (Saccharomyces cerevisiae) (UniProt P23201); assay: split reporter; foldback competition assay with full-length Spa2CRU extended at its N-terminus, Split-Ub as in Fig. 1E (transformants transferred onto 5-FOA medium) (Fig. 3B)
[3] = biological target: Msb4_(22-81Δ35-39)–Spa2CRU (Saccharomyces cerevisiae) (UniProt Q12317+P23201); assay: as above
[4] = biological target: Ste7_(105-165)–Spa2CRU (Saccharomyces cerevisiae) (UniProt P06784+P23201); assay: as above
[5] = biological target: Msb4_(22-81)–Spa2CRU (Saccharomyces cerevisiae) (UniProt Q12317+P23201); assay: as above
[6] = biological target: SHD1CRU with L109A (Saccharomyces cerevisiae) (UniProt P23201); assay: split reporter; small-scale Split-Ub: diploid cells co-expressing a Nub and a CRU fusion spotted in 10-fold serial dilutions from OD600=1 on SD medium with 5-FOA, 30°C, 2-5 days
[7] = biological target: SHD1CRU with L48A and L51A (Saccharomyces cerevisiae) (UniProt P23201); assay: as above
[8] = biological target: SHD1CRU with L101A (Saccharomyces cerevisiae) (UniProt P23201); assay: as above
[9] = biological target: SHD1CRU with L51A (Saccharomyces cerevisiae) (UniProt P23201); assay: as above
[10] = biological target: SHD1CRU (Saccharomyces cerevisiae) (UniProt P23201); assay: as above
[11] = biological target: SHD1_(K97D) (CRU fusion) (Saccharomyces cerevisiae) (UniProt P23201); assay: as above
[12] = biological target: SHD1CRU with L101A and L109A (Saccharomyces cerevisiae) (UniProt P23201); assay: as above
[13] = biological target: SHD1CRU with L48A (Saccharomyces cerevisiae) (UniProt P23201); assay: as above
[14] = biological target: Dse3_(181-240Δ208-212)–SHD1CRU (Saccharomyces cerevisiae) (UniProt Q08729+P23201); assay: split reporter; foldback competition assay, Split-Ub spotted as in Fig. 1C: SHD1CRU extended at its N-terminus by an FRM-containing stretch that occupies the pocket intramolecularly; loss of the Nub–Msb3 signal on 5-FOA is read as binding of the stretch (Fig. 3C, 7C)
[15] = biological target: SHD1CRU (Saccharomyces cerevisiae) (UniProt P23201); assay: as above

binding [1]: binds | binding [2]: binds | binding [3]: binds | binding [4]: no binding | binding [5]: no binding | binding [6]: binds | binding [7]: no binding | binding [8]: binds | binding [9]: binds | binding [10]: binds | binding [11]: binds | binding [12]: no binding | binding [13]: binds
B1: Nub–Msb4 (protein, UniProt Q12317 1-492)
chain: MIMSSTMSTEAALVPNESVFDTVSSFNEDDANYSVLDLYDDDDEGDDSSTVERKEILTTRELEKAKAFTSLIMADPENFDRYGFSKKGYFISQEEYDKWWTEYNRYTERRKKKWENFLLKNKIELHNDNPLVYPARTDELSKFVRKGIPAEWRGNAWWYFAGGQRQLDANVGVYDRLKSDCREGAVSGKDMEAIERDLYRTFPDNIHFHKESFQNGEPAIIRSLRRVLMAFSVYDKTIGYCQSMNFLVGLLLLFMEEEKAFWMLVIITGKYLPGVYESDLEGANVDQGVLVLCIKEYLPEIWSHIESSYMNGNGSTDQISGPASGEEYLCRLPTLTLCTASWFMSCFVGVVPIETTLRIWDCLFYEESHFLFKVALGILKLSESEFLESKSQKLFRQYSSYTFGGSNDSDSTFKRLKNKIKTQEEADMEILQVIQNFPKRLLNPNDIFEKVLMKKKVALNGITQEKIDRGREYVAMARNRQRASSRPKERRK

binding [1]: binds | binding [2]: binds | binding [3]: binds | binding [4]: no binding | binding [5]: no binding | binding [6]: no binding | binding [8]: no binding | binding [9]: no binding | binding [10]: binds | binding [11]: no binding | binding [13]: no binding | binding [14]: binds | binding [15]: binds
B2: Nub–Msb3 (protein, UniProt P48566 1-633)
chain: MQNDQQRFSLQNRTVLAHPYKRLGGAFTVKSPSVPNFHDKMHSDHSSSDSALVNGSFRANDHRSVEPSCLGQASPSEHDGNLSVIDLYGDEVESQRAEGEDDDDNNGDNGNEDLEEVHSDDLDLVPDDDNRQRVELEGAASATSANSNGINNTHFDRYGFKKQNNYISEAEYDKWWVEYSQYCVRRKHKWQLLLEKSGLPVTDDSPSRFPSKSERLKRYVRKGIPAEWRGNAWWHFARGQEKLNKNKGVYSQLLRKMKQIKKQNPNEKQVQDLDIIERDLNRTFPDNIHFQSSLHNKEGPPIIKSLRRVLVAFSLYNPKIGYCQSMNFLAGLLLLFLDEERAFWMLVIITSRYLPGVHNINLEGVNIDQGVLMLCVKEYIPEVWSYIKPSIDHHQKNNKTFSPSNKKVLFNMQKNEFLYRLPPITLCTASWFMSCFVGVVPIETTLRIWDCLFYEESHFLFKVSLAVLKLSEHDLSKIKPRNNSLNYSWGSNLNQRGGSMGQEDSDMEIFQVIQTFPKTLLNPNEIFEKIIFKRRFNLNRLDQDEIDRCRKFVAAQRLKFKTYGELLGNSTSEADLPINDNTDNKGIHITSDAVNEALSSEVYGFKKSLAGVHWNNSIKEKVKQMRKKKDKGD
